Experimental data from patent publication US20250002455A1, “NEW N-PHENYLPYRROLAMIDE INHIBITORS OF DNA GYRASE AND TOPOISOMERASE IV WITH ANTIBACTERIAL ACTIVITY” (priority 2020, published 2025).

Assays:
M. tuberculosis H37Rv = test: microbe, parasite or virus in culture; conditions: Mycobacterium tuberculosis, 168 h, read-out: Viability of Mycobacterium tuberculosis H37Rv (%)
[1] = test system: THP-1 macrophages infected with M. tuberculosis H37Rv

SMILES | viability at 1.25 µM (M. tuberculosis H37Rv) | viability at 2.5 µM (M. tuberculosis H37Rv) | viability at 5 µM (M. tuberculosis H37Rv) | % GFP-Mtb [1] | % THP-1 macrophages [1] | viability at 10 µM (M. tuberculosis H37Rv) | viability at 20 µM (M. tuberculosis H37Rv)
Cc1[nH]c(C(=O)Nc2ccc(-c3noc(=O)[nH]3)cc2N2CCC(N)CC2)c(Cl)c1Cl.Cl [Example 1, 1-(2-(3,4-Dichloro-5-methyl-1H-pyrrole-2-carboxamido)-5-(5-oxo-4,5-dihydro-1,2,4-oxadiazol-3-yl)phenyl)piperidin-4-aminium chloride] | 4.1% | 1.8% | 0.2% | 7.6% | 25.8% |  | 
Cc1[nH]c(C(=O)Nc2ccc(-c3noc(=O)[nH]3)cc2NC2CCNCC2)c(Cl)c1Cl.Cl [Example 4, 4-((2-(3,4-Dichloro-5-methyl-1H-pyrrole-2-carboxamido)-5-(5-oxo-4,5-dihydro-1,2,4-oxadiazol-3-yl)phenyl)amino)piperidin-1-ium chloride] | 80% | 13.6% | 2.4% |  |  |  | 
Cc1[nH]c(C(=O)Nc2ccc(-c3noc(=O)[nH]3)cc2N2CCNCC2)c(Cl)c1Cl [Example 5, 4-(2-(3,4-Dichloro-5-methyl-1H-pyrrole-2-carboxamido)-5-(5-oxo-4,5-dihydro-1,2,4-oxadiazol-3-yl)phenyl)piperazin-1-ium chloride] | 22% | 2.3% | 1.3% |  |  |  | 
Cc1[nH]c(C(=O)Nc2ccc(-c3noc(=O)[nH]3)cc2N2CCCC2)c(Cl)c1Cl [Example 6, 3,4-Dichloro-5-methyl-N-(4-(5-oxo-4,5-dihydro-1,2,4-oxadiazol-3-yl)-2-(pyrrolidin-1-yl)phenyl)-1H-pyrrole-2-carboxamide] | 100% | 112% | 99% |  |  |  | 
Cc1[nH]c(C(=O)Nc2ccc(-c3noc(=O)[nH]3)cc2N2CCN(c3ccccc3)CC2)c(Cl)c1Cl [Example 7, 3,4-Dichloro-5-methyl-N-(4-(5-oxo-4,5-dihydro-1,2,4-oxadiazol-3-yl)-2-(4-phenylpiperazin-1-yl)phenyl)-1H-pyrrole-2-carboxamide] | 100% | 82.3% | 109% |  |  |  | 
Cc1[nH]c(C(=O)Nc2ccc(-c3noc(=O)[nH]3)cc2N2CCOCC2)c(Cl)c1Cl [Example 8, 3,4-Dichloro-5-methyl-N-(2-morpholino-4-(5-oxo-4,5-dihydro-1,2,4-oxadiazol-3-yl)phenyl)-1H-pyrrole-2-carboxamide] | 74.4% | 52.2% | 19.1% | 7.6% | 30.4% | 10.5% | 23%
Cc1[nH]c(C(=O)Nc2ccc(-c3nn[nH]n3)cc2N2CCOCC2)c(Cl)c1Cl [Example 10, 3,4-Dichloro-5-methyl-N-(2-morpholino-4-(2H-tetrazol-5-yl)phenyl)-1H-pyrrole-2-carboxamide] | 109% | 94.2% | 140% |  |  |  | 
Cc1[nH]c(C(=O)Nc2ccc(-c3n[nH]c(=O)o3)cc2OCc2ccccc2)c(Cl)c1Cl [Example 11, N-(2-(Benzyloxy)-4-(5-oxo-4,5-dihydro-1,3,4-oxadiazol-2-yl)phenyl)-3,4-dichloro-5-methyl-1H-pyrrole-2-carboxamide] | 118% | 112% | 119% |  |  |  | 
Cc1[nH]c(C(=O)Nc2ccc(C(=O)O)cc2NC2CCNCC2)c(Cl)c1Cl.Cl [Example 15, 4-((5-Carboxy-2-(3,4-dichloro-5-methyl-1H-pyrrole-2-carboxamido)phenyl)amino)piperidin-1-ium chloride] | 121% | 128% | 145% |  |  |  | 
Cc1[nH]c(C(=O)Nc2ccc(C(=O)O)cc2N2CCN(c3ccccc3)CC2)c(Cl)c1Cl [Example 16, 4-(3,4-Dichloro-5-methyl-1H-pyrrole-2-carboxamido)-3-(4-phenylpiperazin-1-yl)benzoic acid] | 127% | 134% | 144% |  |  |  | 
Cc1[nH]c(C(=O)Nc2ccc(-n3nn[nH]c3=O)cc2N2Cc3ccccc3C2)c(Cl)c1Cl [Example 25, 3,4-Dichloro-N-(2-(isoindolin-2-yl)-4-(5-oxo-4,5-dihydro-1H-tetrazol-1-yl)phenyl)-5-methyl-1H-pyrrole-2-carboxamide] | 112% | 109% | 130% |  |  |  | 
Cc1[nH]c(C(=O)Nc2ccc(-c3n[nH]c(=O)o3)cc2OC2CCNC2)c(Cl)c1Cl.Cl (centres unmarked) [Example 26, 3-(2-(3,4-Dichloro-5-methyl-1H-pyrrole-2-carboxamido)-5-(5-oxo-4,5-dihydro-1,3,4-oxadiazol-2-yl)phenoxy)pyrrolidin-1-ium chloride] | 114% | 111% | 102% |  |  | 99.2% | 110%
Cc1[nH]c(C(=O)Nc2ccc(-c3n[nH]c(=O)o3)cc2OCC2CCCNC2)c(Cl)c1Cl.Cl (centres unmarked) [Example 28, 3-((2-(3,4-Dichloro-5-methyl-1H-pyrrole-2-carboxamido)-5-(5-oxo-4,5-dihydro-1,3,4-oxadiazol-2-yl)phenoxy)methyl)piperidin-1-ium chloride] | 90.4% | 87.7% | 65.9% |  |  | 38.8% | 30.1%
Cc1[nH]c(C(=O)Nc2ccc(-c3n[nH]c(=O)o3)cc2OCCC2CCNCC2)c(Cl)c1Cl.Cl [Example 29, 4-(2-(2-(3,4-Dichloro-5-methyl-1H-pyrrole-2-carboxamido)-5-(5-oxo-4,5-dihydro-1,3,4-oxadiazol-2-yl)phenoxy)ethyl)piperidin-1-ium chloride] | 107% | 92.8% | 88% |  |  | 71.5% | 75.5%
Cc1[nH]c(C(=O)Nc2ccc(-c3n[nH]c(=O)o3)cc2OCc2ccncc2)c(Cl)c1Cl [Example 30, 3,4-Dichloro-5-methyl-N-(4-(5-oxo-4,5-dihydro-1,3,4-oxadiazol-2-yl)-2-(pyridin-4-ylmethoxy)phenyl)-1H-pyrrole-2-carboxamide] | 102% | 96.4% | 93.2% |  |  | 93.5% | 107%
Cc1[nH]c(C(=O)Nc2ccc(-c3n[nH]c(=O)o3)cc2OCc2ncccn2)c(Cl)c1Cl [Example 31, 3,4-Dichloro-5-methyl-N-(4-(5-oxo-4,5-dihydro-1,3,4-oxadiazol-2-yl)-2-(pyrimidin-2-ylmethoxy)phenyl)-1H-pyrrole-2-carboxamide] | 103% | 81.4% | 71.7% |  |  | 87.4% | 115%
Cc1[nH]c(C(=O)Nc2ccc(-c3n[nH]c(=O)o3)cc2OC(C)C)c(Cl)c1Cl [Example 32, 3,4-Dichloro-N-(2-isopropoxy-4-(5-oxo-4,5-dihydro-1,3,4-oxadiazol-2-yl)phenyl)-5-methyl-1H-pyrrole-2-carboxamide] | 95.5% | 85.2% | 72.2% |  |  | 81.7% | 92.5%
Cc1[nH]c(C(=O)Nc2ccc(-c3n[nH]c(=O)o3)cc2OCc2cccs2)c(Cl)c1Cl [Example 33, 3,4-Dichloro-5-methyl-N-(4-(5-oxo-4,5-dihydro-1,3,4-oxadiazol-2-yl)-2-(thiophen-2-ylmethoxy)phenyl)-1H-pyrrole-2-carboxamide] | 85.8% | 116% | 118% |  |  | 116% | 115%
Cc1[nH]c(C(=O)Nc2ccc(C(=O)NCC(=O)O)cc2N2CCNCC2)c(Cl)c1Cl.Cl [Example 36, 4-(5-((Carboxymethyl)carbamoyl)-2-(3,4-dichloro-5-methyl-1H-pyrrole-2-carboxamido)phenyl)piperazin-1-ium chloride] | 119% | 107% | 125% |  |  |  | 
Cl.N[C@H]1CCN(c2cc(C(=O)NCC(=O)O)ccc2NC(=O)c2cc(Br)c(Br)[nH]2)C1 [Example 38, (S)-1-(5-((Carboxymethyl)carbamoyl)-2-(4,5-dibromo-1H-pyrrole-2-carboxamido)phenyl)pyrrolidin-3-aminium chloride] | 126% | 124% | 134% |  |  |  | 
Cc1[nH]c(C(=O)Nc2ccc(-c3n[nH]c(=O)o3)cc2N2CCNCC2)c(Cl)c1Cl.Cl [Example 41, 4-(2-(3,4-Dichloro-5-methyl-1H-pyrrole-2-carboxamido)-5-(5-oxo-4,5-dihydro-1,3,4-oxadiazol-2-yl)phenyl)piperazin-1-ium chloride] | 39.4% | 5.6% | 4.6% |  |  |  | 
Cc1[nH]c(C(=O)Nc2ccc(-c3n[nH]c(=O)o3)cc2N2CCOCC2)c(Cl)c1Cl [Example 42, 3,4-Dichloro-5-methyl-N-(2-morpholino-4-(5-oxo-4,5-dihydro-1,3,4-oxadiazol-2-yl)phenyl)-1H-pyrrole-2-carboxamide] | 122% | 90.8% | 11% |  |  |  | 
Cc1[nH]c(C(=O)Nc2ccc(-c3n[nH]c(=O)o3)cc2N2CCOC(C)C2)c(Cl)c1Cl (centres unmarked) [Example 43, 3,4-Dichloro-5-methyl-N-(2-(2-methylmorpholino)-4-(5-oxo-4,5-dihydro-1,3,4-oxadiazol-2-yl)phenyl)-1H-pyrrole-2-carboxamide] | 138% | 12% | 45.3% |  |  |  | 
Cc1[nH]c(C(=O)Nc2ccc(-c3n[nH]c(=O)o3)cc2N2CC(C)OC(C)C2)c(Cl)c1Cl (centres unmarked) [Example 44, 3,4-dichloro-N-(2-(2,6-dimethylmorpholino)-4-(5-oxo-4,5-dihydro-1,3,4-oxadiazol-2-yl)phenyl)-5-methyl-1H-pyrrole-2-carboxamide] | 164% | 149% | 37.9% |  |  |  | 
